Measured values published in paper PMC4336329 (PLoS ONE, 2015).
Among all 310,000 compounds or so, about 14,000 (4.5%) showed an effect of 50% or more. Effects have a minus sign here. This is one part of the list.

These compounds were tested against human ether-à-go-go-related gene (hERG) potassium channel (human, UniProt Q12809) (assay: primary screen, population patch clamp on CHO cells stably expressing hERG).
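Also: peak tail current of the secondary pulse compared with the same well before compound.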

Sequence of human ether-à-go-go-related gene (hERG) potassium channel (Q12809 whole entry, looked up): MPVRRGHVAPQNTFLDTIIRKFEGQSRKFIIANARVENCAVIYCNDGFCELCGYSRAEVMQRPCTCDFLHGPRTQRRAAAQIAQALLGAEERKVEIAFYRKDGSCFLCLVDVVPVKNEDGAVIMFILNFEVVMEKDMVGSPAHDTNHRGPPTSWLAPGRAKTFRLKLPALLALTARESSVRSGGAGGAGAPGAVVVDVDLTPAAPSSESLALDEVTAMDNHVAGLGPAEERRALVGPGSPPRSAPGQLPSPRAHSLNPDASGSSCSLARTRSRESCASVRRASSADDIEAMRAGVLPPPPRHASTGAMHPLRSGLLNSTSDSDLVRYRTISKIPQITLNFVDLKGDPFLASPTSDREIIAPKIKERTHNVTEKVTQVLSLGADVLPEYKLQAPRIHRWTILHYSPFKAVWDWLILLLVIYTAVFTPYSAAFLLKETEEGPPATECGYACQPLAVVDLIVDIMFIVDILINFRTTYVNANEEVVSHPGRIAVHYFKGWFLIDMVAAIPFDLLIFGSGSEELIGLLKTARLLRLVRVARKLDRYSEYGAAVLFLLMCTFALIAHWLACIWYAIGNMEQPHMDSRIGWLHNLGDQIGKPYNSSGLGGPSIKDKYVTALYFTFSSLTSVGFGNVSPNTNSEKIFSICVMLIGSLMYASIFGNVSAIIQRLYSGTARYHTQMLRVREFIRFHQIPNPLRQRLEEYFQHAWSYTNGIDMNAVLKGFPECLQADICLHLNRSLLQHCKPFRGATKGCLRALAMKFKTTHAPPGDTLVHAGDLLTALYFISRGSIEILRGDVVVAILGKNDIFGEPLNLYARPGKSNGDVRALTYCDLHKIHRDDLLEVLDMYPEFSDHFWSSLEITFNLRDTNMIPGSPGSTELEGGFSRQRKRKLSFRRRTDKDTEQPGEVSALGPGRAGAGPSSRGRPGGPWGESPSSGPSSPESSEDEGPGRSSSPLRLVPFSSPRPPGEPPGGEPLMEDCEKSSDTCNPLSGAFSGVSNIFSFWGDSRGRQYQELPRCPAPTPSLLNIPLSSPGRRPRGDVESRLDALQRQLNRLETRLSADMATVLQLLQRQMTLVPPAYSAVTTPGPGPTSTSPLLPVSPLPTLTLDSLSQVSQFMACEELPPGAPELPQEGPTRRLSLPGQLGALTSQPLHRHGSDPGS

Point of comparison: `CCNC(=S)NNC(=O)CC(C)C`, “hERG current change (%, negative = inhibition) at 10uM” value 24.6%. Against it:
- CC(/C=C/c1ccccc1)=N\Nc1nc(C)cc(C)n1 — lower, -16.8%
- O=Cc1c(-c2ccccc2)cc2oc3ccccc3cc1-2 — higher, 26.4%
- O=[N+]([O-])c1ccc(N2CCOCC2)cc1SCc1ccco1 — lower, -18.7%
- O=C(NC(=S)NNC(=O)c1ccccc1O)c1ccccc1 — lower, 23.3%
- Cc1cc(NC(=O)CCC(=O)N(CC(=O)NCC2CCCO2)c2ccccc2)no1 (centres unmarked) — higher, 27.5%
- Cc1scc(C(=O)NCc2ccco2)c1-c1ccccc1 — lower, 4.42%
- Cc1nc2ccccn2c1C(=O)/C=C/c1cccc([N+](=O)[O-])c1 — lower, -32.1%
- CCCCN(C)c1nc(-c2ccco2)c2c(c1C#N)CC(C)(C)OC2 — lower, 5.54%
- Cc1ccc(S(=O)(=O)CCSc2nc(C)cc(C(F)(F)F)c2C#N)cc1 — lower, -31%
- CN(CC(=O)Nc1ccccc1Cl)C(=O)Cn1cc(C(F)(F)F)ccc1=O — lower, -3.43%
- Cc1ccc(S(=O)(=O)NCc2nc(-c3ccccc3)no2)cc1 — lower, 1.69%
- COc1ccccc1NS(=O)(=O)c1ccc(NC(=O)Cc2cccs2)cc1 — lower, 0.963%
- CC(=O)Nc1ccc(S(=O)(=O)N(C)CC(=O)N/N=C/c2cccs2)cc1 — lower, 0.815%
- CN(C)C=NC(=O)c1cc(C(=O)c2ccccc2)c[nH]1 — lower, 10.6%
- C=CCNS(=O)(=O)c1ccc(C(=O)OCc2cc(=O)oc3cc(OC)ccc23)cc1 — lower, 3.66%
- CC(C)(C)SCCNC(=O)/C=C/c1cccc([N+](=O)[O-])c1 — lower, -28.4%
- CC(=O)Nc1nc2cc3c(cc2s1)OCCO3 — lower, -6.79%
- COc1ccc(C2NC(=O)NC(C)=C2C(=O)Nc2cc(C)ccc2C)cc1OC (centres unmarked) — lower, 1.59%
- O=C1CCCN1C(=O)CCC(=O)N1CCCC1=O — lower, -29%
- COc1ccccc1NC(=O)c1cc(Cl)nc2ccccc12 — lower, -1.87%
- COC(=O)c1cc(NC(=S)N2CCN(C(=O)C3CCCO3)CC2)cc(C(=O)OC)c1 (centres unmarked) — lower, -6.49%
- CCc1ccc(NC2=NCC(=O)N2Cc2ccc3c(c2)OCO3)cc1 — lower, -8.76%
- Cc1onc(-c2ccccc2)c1C(=O)Nc1cccnc1 — lower, -10.2%
- COCCCNCC#CCOc1ccc(OC)cc1.O=C(O)C(=O)O — lower, 0.922%
- CCOc1ccc(/C(O)=C2/C(=O)C(=O)N(CCOCCO)C2c2ccccc2)cc1 (centres unmarked) — lower, 4.5%
